# Laboratory results taken from publication PMC4336329 (PLoS ONE, 2015).
# Out of some 310,000 compounds screened, about 14,000 (4.5%) showed an effect of 50% or more. Effects have a minus sign here. The list shows a part of the results.
# Biological target: human ether-à-go-go-related gene (hERG) potassium channel (human, UniProt Q12809)
# Test: primary screen, population patch clamp on CHO cells stably expressing hERG
# 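Note: peak tail current of the secondary pulse compared with the same well before compound.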
# Chain of human ether-à-go-go-related gene (hERG) potassium channel (Q12809 whole entry, looked up): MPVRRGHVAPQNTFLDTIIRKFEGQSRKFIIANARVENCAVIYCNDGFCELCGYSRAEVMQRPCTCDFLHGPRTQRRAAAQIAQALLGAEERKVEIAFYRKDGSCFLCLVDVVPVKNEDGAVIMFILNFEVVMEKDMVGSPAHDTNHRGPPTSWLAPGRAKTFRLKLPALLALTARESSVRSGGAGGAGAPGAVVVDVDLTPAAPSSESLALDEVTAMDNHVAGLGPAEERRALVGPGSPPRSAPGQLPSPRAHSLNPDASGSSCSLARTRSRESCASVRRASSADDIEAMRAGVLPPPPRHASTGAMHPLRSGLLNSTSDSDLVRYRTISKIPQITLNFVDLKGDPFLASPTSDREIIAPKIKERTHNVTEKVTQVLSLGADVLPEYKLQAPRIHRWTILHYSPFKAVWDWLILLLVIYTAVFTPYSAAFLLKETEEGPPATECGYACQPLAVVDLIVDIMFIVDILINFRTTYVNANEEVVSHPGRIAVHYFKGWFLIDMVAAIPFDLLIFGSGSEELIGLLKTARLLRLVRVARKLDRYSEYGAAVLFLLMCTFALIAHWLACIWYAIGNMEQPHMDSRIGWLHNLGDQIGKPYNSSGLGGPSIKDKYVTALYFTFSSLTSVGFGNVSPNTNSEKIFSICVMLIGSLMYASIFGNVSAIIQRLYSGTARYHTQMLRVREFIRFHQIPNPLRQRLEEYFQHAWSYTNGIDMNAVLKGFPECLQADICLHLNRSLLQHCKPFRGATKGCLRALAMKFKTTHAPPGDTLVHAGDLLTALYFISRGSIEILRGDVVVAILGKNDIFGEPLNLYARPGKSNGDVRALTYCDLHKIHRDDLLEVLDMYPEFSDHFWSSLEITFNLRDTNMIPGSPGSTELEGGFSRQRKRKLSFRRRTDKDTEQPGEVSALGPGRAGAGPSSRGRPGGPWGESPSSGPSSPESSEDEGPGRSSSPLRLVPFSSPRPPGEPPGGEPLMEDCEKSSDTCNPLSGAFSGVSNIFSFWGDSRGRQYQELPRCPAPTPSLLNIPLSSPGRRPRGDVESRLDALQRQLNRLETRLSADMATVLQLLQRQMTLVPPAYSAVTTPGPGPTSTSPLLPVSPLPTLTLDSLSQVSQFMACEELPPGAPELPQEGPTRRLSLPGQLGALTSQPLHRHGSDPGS
row,Compound,"hERG current change (%, negative = inhibition) at 10uM"
1,CCOc1ccc(N2CC(C(=O)Nc3cc(C)on3)CC2=O)cc1 (stereo not drawn),-28.5%
2,Clc1ccc(-c2csc(-c3ccncc3)n2)cc1,13.6%
3,O=C(C1CCN(S(=O)(=O)c2cccnc2)CC1)N1CCN(c2cccc(Cl)c2)CC1,-31.5%
4,O=C(CN1C(=O)c2ccccc2S1(=O)=O)N1CCc2ccccc2C1,-17.6%
5,O=C1CC(c2ccccc2Cl)Cc2c1cnn2-c1nc2ccccc2s1 (stereo not drawn),19.7%
6,O=C(CCNc1ccc(Cc2ccncc2)cc1)c1cccc([N+](=O)[O-])c1,11%
7,COc1ccc(-n2c(C)cc(C(=O)CN3C(=O)NC4(CCCc5sccc54)C3=O)c2C)cc1 (stereo not drawn),1.95%
8,O=S(=O)(/N=C(/Nc1ccc(F)cc1F)c1ccc(Cl)cc1)c1ccccc1,-1.17%
9,O=C1CN(c2nc(-c3ccccc3)c3cc(Br)ccc3n2)c2ccccc2N1,18.9%
10,Cc1cccc(C2CC(c3ccc(Cl)cc3)Nc3nc(N)nn32)c1 (stereo not drawn),-18.5%
11,O=C1c2cccc3cccc(c23)N1Cc1cccc(F)c1,17.1%
12,COc1ccccc1CNC(=O)C1CCC(=O)N(CCCN2CCCC2=O)C1 (stereo not drawn),5.39%
13,O=C(N=Nc1c(O)[nH]c2ccc([N+](=O)[O-])cc12)c1cc(-c2ccccc2Cl)nc2ccccc12,7.09%
14,CC1=NOC(=O)/C1=C/c1ccc(O)cc1,41.4%
15,CN(C)CCSc1nc(N)c2c3c(sc2n1)CN(C)CC3,9.66%
16,COCCN(C(=O)COC(=O)/C=C/c1ccc2c(c1)OCO2)c1c(N)n(Cc2ccccc2)c(=O)[nH]c1=O,9.63%
17,O=C(O)C(CCCCNS(=O)(=O)c1ccc(F)cc1)NS(=O)(=O)c1ccc(F)cc1 (stereo not drawn),8.92%
18,CCCC(=O)Nc1c(-c2cccs2)c(=O)c2ccccc2n1CC,-5.6%
19,Cc1cccc(C)c1NC(=S)NC(C)(C)CO,12.9%
20,CCOc1ncccc1C(=O)OCc1ccc(C(=O)OC)cc1,6.63%
21,Cc1cc(C)n(C)c(=O)c1C#N,12.7%
22,Cc1noc(C)c1-c1ccc2ncnc(NCC3CCCCN3C)c2c1 (stereo not drawn),12.1%

row,Compound,"hERG current change (%, negative = inhibition) at 10uM"
1,CCCN1C(=O)CC(c2ccco2)Sc2ccccc21 (stereo not drawn),-19.4%
2,Cn1ncc(C(=O)Nc2ccc(OC(F)(F)F)cc2)c1-n1cccc1,-81.3%
3,CCC(=O)c1ccc(OCC(=O)OCC(=O)NCCCc2ccccc2)cc1,6.36%
4,Cc1ccnc(NC(=O)c2oc3ccccc3c2C)c1,24.7%
5,CCOc1ccc(NC(=S)Nc2ccc(F)cc2)cc1,-21.6%
6,CC1CCc2[nH]nc(C(=O)O)c2C1 (stereo not drawn),-0.665%
7,CC(=O)C1=C(O)C(=O)N(C2CCCCC2)C1c1ccccc1 (stereo not drawn),0.00058%
8,COc1ccc(CCNC(=O)CSc2nnc(-c3ccc(F)cc3)c3ccccc23)cc1OC,-23.9%
9,Cc1cccc(NC(=O)CCN2CCN(C/C=C/c3ccccc3)CC2)c1.Cl,-74%
10,Cc1ccc([N+](=O)[O-])cc1NC(=O)Nc1onc(C)c1C,17.1%
11,O=C(NCCc1ccc(Cl)cc1)C1CCN(S(=O)(=O)N2CCCCC2)CC1,-5.98%
12,Cl.NC(CO)c1cn([C@@H](CCC(=O)O)C(=O)N2CCNCC2)nn1 (stereo partly drawn),18.3%
13,Cc1ccc(NC(=O)Cc2nc(CCl)cs2)cc1.Cl,-3.78%
14,Oc1ccccc1-c1nc(/C=C/c2ccccc2)nn1-c1ccccc1,10.2%
15,COc1ccc(NC(=O)CN(C)C(=O)c2cccc(S(=O)(=O)Nc3ccccc3Cl)c2)cc1,2.72%
16,CCCN=C(C)C1=C(O)c2ccccc2C1=O,11.3%
17,CC1(C)C2CC[C@]1(C)C(=O)N(CCCCN1CCN(c3ccccn3)CC1)C2=O.Cl,-44%
18,CN1C(=O)/C(=C\c2ccccc2OCc2ccccc2)SC1=S,14.8%
19,N#CC1=C(N)NC(=S)C(C(N)=O)C1c1ccc([N+](=O)[O-])cc1 (stereo not drawn),13.4%
20,Cc1ccccc1CSCc1nc(N)nc(Nc2ccccc2C)n1,20.2%
21,O=C1NC(=O)N(c2ccccc2)C(=O)/C1=C/c1coc2ccc(O)cc2c1=O,-6.18%
22,O=C(NN1CCOCC1)c1cc(-c2cccs2)nc2ccccc12,-24%

row,Compound,"hERG current change (%, negative = inhibition) at 10uM"
1,O=C(Nc1nc(-c2cccs2)cs1)c1ccc(S(=O)(=O)N2CCCC2)cc1,5.72%
2,Cc1ccc(C)c(S(=O)(=O)NCc2ccc(C(=O)N3CCN(c4ccccc4)CC3)cc2)c1,-3.21%
3,O=C(O)CSCc1nc2scc(-c3ccccc3)c2c(=O)[nH]1,19.1%
4,CCn1c(C)nc2cc(C(=O)NNC(=S)Nc3ccc(OC)cc3)ccc21,23.5%
5,COc1cc2c(cc1OC)CN(C(=O)CCOc1ccccc1)CC2,-8.53%
6,Cc1ccc(OC(C)C(=O)Nc2ccc3c(c2)n(C)c(=O)n3C)c(C)c1 (stereo not drawn),11.7%
7,Cc1ccc2c(c1C)NC(C)CC2C.Cl (stereo not drawn),1%
8,Cc1ccc(S(=O)(=O)CCC(=O)N(C)c2c(N)n(Cc3ccccc3)c(=O)[nH]c2=O)cc1,14.4%
9,CCn1c(CNC(=O)COc2c(C)cccc2C)nnc1SCC(=O)Nc1nccs1,-51.8%
10,O=C(NC1CCN(C(=O)NCc2ccccc2)CC1)c1ccc(F)cc1,-15.8%
11,C1=CCN(Cc2ccccc2)C1,0.36%
12,CC1Cc2ccccc2N1C(=O)CSc1nc(-c2ccco2)cc(C(F)(F)F)n1 (stereo not drawn),-1.9%
13,CCN(CC)Cc1oc(-c2ccccc2)cc1C(=O)O,10.9%
14,FC(F)(F)c1cccc(NC(=S)NCCc2ccccn2)c1,-25.5%
15,Cc1ccccc1C(=O)Nc1ccc(C(=O)N/N=C/c2ccc(F)cc2)cc1,18.9%
16,CCOC(=O)C1CCCN(C(=O)Cn2c(=O)c3cccn3c3cccnc32)C1 (stereo not drawn),21.2%
17,CCNC(=O)c1cccc(S(=O)(=O)N2CCCCCC2)c1,-2.91%
18,CC(C)[C@]12O[C@H]1[C@@H]1O[C@]13[C@]1(O[C@H]1C[C@H]1C4=C(CC[C@@]13C)C(=O)OC4)[C@@H]2O,0.465%
19,Cn1nc(-c2ccc(Cl)cc2)c2cc(C(=O)NCCCN3CCCC3)sc21,-59.5%
20,COc1ccc(CNC(=O)C2CCN(S(=O)(=O)c3cccc4nsnc34)CC2)cc1,5.82%
21,CC(=O)c1cccc(NC(=S)NC(=O)c2ccccc2C)c1,-4.16%
22,O=C(O)COc1cccc(NC(=O)c2ccccc2)c1,-3.14%

row,Compound,"hERG current change (%, negative = inhibition) at 10uM"
1,COc1ccc(OC)c(S(=O)(=O)N2CCC(C(=O)N(C)Cc3ccccc3)CC2)c1,-23.5%
2,COc1cc(CN2CCN(C(c3ccccc3)c3ccccc3)CC2)cc(OC)c1OC.O=C(O)C(=O)O,-17.2%
3,CCOc1ccccc1N1CCN(C(=O)c2ccc(OCC(=O)N3CCOCC3)c(OC)c2)CC1,3.55%
4,COc1ccc2[nH]c(=O)c(CN(C)C(=O)COc3ccccc3)cc2c1,12.1%
5,CCC(C(=O)Nc1ccccc1Cl)n1nc(C)c2c(C)n(-c3ccccc3)nc2c1=O (stereo not drawn),-4.53%
6,COCc1cc(C)n(CC(=O)Nc2ccc3c(c2)OCO3)c(=O)c1C#N,8.68%
7,CCN(CC(=O)Nc1c(C(=O)OC)[nH]c2ccc(C)cc12)c1ccc2c(c1)OCO2,2.19%
8,Cc1cc(C(=O)N2CCc3ccccc32)c2ccccc2n1,2.66%
9,O=C(Nc1ncn[nH]1)C(F)(F)C(F)F,-2.1%
10,O=C(CN1CCOCC1)Nc1ncc(Br)cc1Br,-20.3%
11,COc1cccc(N(CC(=O)NCc2cccnc2)S(C)(=O)=O)c1,8.48%
12,CCC(=O)Nc1ccccc1Nc1cc(C#N)c(C#N)cc1[N+](=O)[O-],1.07%
13,Oc1ccc(/C=N/Nc2ncc(Cl)cc2Cl)cc1,9.58%
14,CC(C)n1cc(CN2CCC(Oc3ccc(C(=O)N4CCCC4)cc3)CC2)cn1,-9.96%
15,COc1ccc(CN(C)C(C)C(=O)Nc2ccc(S(=O)(=O)N3CCCC3)cc2)c(OC)c1OC (stereo not drawn),10.3%
16,CN(C)c1ccc(NC(=O)CN2CCC(O)(c3ccccc3)CC2)cc1,-26%
17,Cc1ccc(C)c(OCc2cc(C(=O)N3C[C@@H](C)O[C@@H](C)C3)no2)c1,4.95%
18,COc1ccc(-c2ccc(=O)n(CC(=O)Nc3ccc(C(=O)NC4CC4)cc3)n2)cc1OC,4.4%
19,Cc1cc(C(=O)Nc2sc3c(c2C#N)CCCCC3)cs1,-18.3%
20,CC(C)(C)OC(=O)NCc1ccc(CNC(=O)c2[nH]cnc2C(=O)NCC(=O)OCc2ccccc2)cc1,1.41%
21,COc1ccc(OC)c(NC(=O)CC2C(=O)NCCN2C(=O)c2ccccc2)c1 (stereo not drawn),15.7%
